Assay results from PubChem BioAssay AID588342 (National Center for Advancing Translational Sciences (NCATS), 2011).
Among all 360,000 compounds or so, about 25,000 (6.9%) were called active. Inconclusive results, whose numbers are uncertain, are shown with a selection of clear calls. Calls come from the whole dose curve; as a rule, active = well fitted inhibition curve with a large enough effect; inconclusive = small, poorly fitted or top-dose-only effect; inactive = flat fitted curve, though single readings scatter. Potencies beside an inconclusive call are fits to weak or partial responses and may not hold up.

These compounds were tested against Luciferin 4-monooxygenase (Photinus pyralis) (UniProt P08659) (assay: qHTS profiling assay for firefly luciferase inhibitor/activator using purifed enzyme and Km concentrations of substrates (counterscreen for miR-21 project)). Details: purified FLuc, luminescence inhibition; series mostly up to 57.5 µM; activity change, negative = inhibition: at the top concentration.
UniProt P08659, sequence (P08659 whole entry, looked up): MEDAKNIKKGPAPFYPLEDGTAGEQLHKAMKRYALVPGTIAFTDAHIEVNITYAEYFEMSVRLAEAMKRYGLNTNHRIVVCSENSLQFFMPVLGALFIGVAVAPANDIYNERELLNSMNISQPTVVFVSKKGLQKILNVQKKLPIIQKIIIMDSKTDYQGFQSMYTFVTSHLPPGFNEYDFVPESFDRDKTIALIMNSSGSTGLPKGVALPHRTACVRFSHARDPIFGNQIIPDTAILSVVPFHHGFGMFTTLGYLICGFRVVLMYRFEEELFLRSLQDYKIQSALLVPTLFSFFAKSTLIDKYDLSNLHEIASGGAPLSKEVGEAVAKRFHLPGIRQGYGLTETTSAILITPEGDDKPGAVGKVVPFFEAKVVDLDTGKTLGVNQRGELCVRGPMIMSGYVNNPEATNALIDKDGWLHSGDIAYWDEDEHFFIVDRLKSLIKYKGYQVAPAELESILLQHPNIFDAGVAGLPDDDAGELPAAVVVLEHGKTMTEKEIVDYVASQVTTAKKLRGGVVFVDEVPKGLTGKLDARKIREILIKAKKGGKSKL
Method in brief: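 Biochemical qHTS of compounds, final roughly 60 µM downward over six points, against 10 nM purified firefly luciferase using Km concentrations of substrates (10 uM D-luciferin, 10 uM ATP) in Tris acetate pH 7.5 buffer; luminescence output.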
Note: nearly all actives have a fitted effect of over 55% in size.
Potency is the fitted concentration of half-maximal effect; tags give direction and shape of the fitted curve.
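Throughout, for activity change, negative = inhibition: plate controls were vehicle for no effect and reference inhibitor for full effect.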

Row | SMILES | Potency | activity change, negative = inhibition
1 | Cc1cc(OCC(F)(F)C(F)(F)C(F)(F)C(F)F)nc(N)n1 | active: 16.9 µM | 
2 | COc1cc(C(=O)Nc2nnc(SC)s2)c([N+](=O)[O-])cc1OC | inconclusive: 37.9 µM [inhibitor, partial curve, poor fit] | 
3 | CCc1ccc2oc(-c3cc(N)cc(C)c3O)nc2c1 | inconclusive: 0.757 µM [inhibitor, single point] | 
4 | CCN(CC)c1ccc(/C=N/n2c(C)cc(C)cc2=O)cc1 | inconclusive: 23.9 µM [inhibitor, partial curve, poor fit] | 
5 | Cc1nc2nc(-c3ccccc3)cn2nc1C | active: 2.39 µM | 
6 | COc1cccc(C(=O)NCCSCc2c(F)cccc2Cl)c1 | inconclusive: 26.9 µM [inhibitor, single point] | 
7 | COc1cc(NC(=O)NCCn2nnc3cc(S(=O)(=O)N(C)C)ccc32)cc(OC)c1 |  | inactive: -1.04%
8 | Brc1ccc(OCCCOc2cccc3cccnc23)cc1 | inconclusive: 21.3 µM [inhibitor, single point] | 
9 | O=C(COC(=O)c1ncc(Cl)c(Cl)c1Cl)Nc1ccccc1OC(F)F | inconclusive: 37.9 µM [inhibitor, partial curve, poor fit] | 
10 | COc1cc(-c2nnn(CC(=O)NC3CCS(=O)(=O)C3)n2)ccc1OCc1ccccc1 (centres undefined) | active: 12 µM | 
11 | Clc1ccccc1-c1csc(Nc2cccnc2)n1 | inconclusive: 6.75 µM [inhibitor, partial curve, poor fit] | 
12 | COc1cc(/C=C2\SC(=O)NC2=O)ccc1OCc1ccc(Cl)nc1 | inconclusive: 9.53 µM [inhibitor, partial curve] | 
13 | CCc1nc(SCc2ccc(OCC(C)C)cc2)n[nH]1 | inconclusive: 26.9 µM [inhibitor, single point] | 
14 | CC(C)(C)NC(=S)NNC(=O)c1ccc2ncccc2c1 | inconclusive: 26.9 µM [inhibitor, partial curve, poor fit] | 
15 | Cc1nn(-c2ccccc2)c(C)c1-c1nnc(-c2c(C)nn(-c3ccccc3)c2C)o1 | inconclusive: 26.9 µM [inhibitor, single point] | 
16 | CN(C(=O)C1CCC1C(=O)O)c1nc(-c2ccc(Cl)s2)cs1 (centres undefined) | inconclusive: 37.9 µM [inhibitor, single point] | 
17 | CCC(=O)n1nc(-c2ccc(OC)cc2)nc1N | inconclusive: 23.9 µM [inhibitor, single point] | 
18 | COc1ccc(NS(=O)(=O)c2ccc3oc(Nc4ccc5c(c4)OCCO5)nc3c2)cc1 | active: 19 µM | 
19 | O=C(Nc1cccc(F)c1)c1ccc(-c2ccccc2C(F)(F)F)o1 | inconclusive: 21.3 µM [inhibitor, single point] | 
